Measured values taken from article PMC4336329 (PLoS ONE, 2015).
The campaign covered roughly 310,000 compounds. About 2,200 (0.71%) showed an effect of 50% or more. Effects have a minus sign here. This is one part of the list.

target: human ether-à-go-go-related gene (hERG) potassium channel (human, UniProt Q12809); test: primary screen, population patch clamp on CHO cells stably expressing hERG
Sequence (Q12809 whole entry, looked up): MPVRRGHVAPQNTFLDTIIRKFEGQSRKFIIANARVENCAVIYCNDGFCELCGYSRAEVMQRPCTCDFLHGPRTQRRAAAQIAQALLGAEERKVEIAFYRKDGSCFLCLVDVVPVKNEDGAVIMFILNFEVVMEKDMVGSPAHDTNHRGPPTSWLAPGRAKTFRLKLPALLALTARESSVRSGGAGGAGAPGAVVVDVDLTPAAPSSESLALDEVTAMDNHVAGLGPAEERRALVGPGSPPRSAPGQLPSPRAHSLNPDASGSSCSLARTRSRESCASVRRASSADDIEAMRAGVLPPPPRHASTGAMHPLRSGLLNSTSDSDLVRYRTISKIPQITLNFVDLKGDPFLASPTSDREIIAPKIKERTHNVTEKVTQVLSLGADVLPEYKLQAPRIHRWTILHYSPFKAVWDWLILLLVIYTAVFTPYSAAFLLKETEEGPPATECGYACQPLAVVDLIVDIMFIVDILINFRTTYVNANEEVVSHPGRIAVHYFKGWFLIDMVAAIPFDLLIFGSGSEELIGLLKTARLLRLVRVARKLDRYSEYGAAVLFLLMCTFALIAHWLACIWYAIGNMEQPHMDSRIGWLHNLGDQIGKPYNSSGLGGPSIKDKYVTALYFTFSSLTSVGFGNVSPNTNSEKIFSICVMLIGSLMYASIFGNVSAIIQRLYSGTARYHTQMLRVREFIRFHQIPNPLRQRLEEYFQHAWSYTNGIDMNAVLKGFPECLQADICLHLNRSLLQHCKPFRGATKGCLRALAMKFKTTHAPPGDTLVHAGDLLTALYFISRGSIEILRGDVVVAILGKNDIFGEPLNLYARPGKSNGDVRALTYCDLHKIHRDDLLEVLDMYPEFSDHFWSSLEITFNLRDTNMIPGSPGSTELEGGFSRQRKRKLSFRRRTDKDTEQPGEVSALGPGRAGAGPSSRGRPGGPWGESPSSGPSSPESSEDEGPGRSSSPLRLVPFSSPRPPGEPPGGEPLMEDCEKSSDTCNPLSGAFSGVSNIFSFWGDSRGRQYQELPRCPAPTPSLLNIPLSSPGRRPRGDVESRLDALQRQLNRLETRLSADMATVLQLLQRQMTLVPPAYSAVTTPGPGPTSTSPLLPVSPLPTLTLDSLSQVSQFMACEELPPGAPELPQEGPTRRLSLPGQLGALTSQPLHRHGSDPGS

SMILES | hERG current change (%, negative = inhibition) at 1uM [%]
O=C(Nc1cccc(F)c1)Nc1cnccn1 | 14.5
O=C(CCc1ccccc1)NCC(=O)N/N=C/c1ccc2c(c1)OCO2 | 0.246
Cc1ccc(S(=O)(=O)N2CCCCC2CCNC(=O)C(=O)NCC2CCCO2)cc1 (centres unmarked) | 6.93
CCc1ccccc1Nc1nc(N)nc(CSCC(=O)c2cc(C)n(C)c2C)n1 | 5.97
Cc1cc(N2CC(C(=O)NCc3cccnc3)CC2=O)ccc1C(C)C (centres unmarked) | 1.95
CCCCSc1nc2c(c(C(F)(F)F)c1C#N)CCC2 | 17.2
O=C(COc1ccc(Cl)cc1Br)Nc1ccccc1N1CCCC1 | 11.5
CCOC(=O)C1(Cc2ccc(Cl)cc2)CCN(C(=O)c2cc(C)nc(C)n2)CC1 | -0.647
COc1ccc(-c2c(C(=O)O)c(C(=O)O)c3n2CCC3)cc1 | 18.4
COc1ccc(-c2[nH]ncc2CN(CC2CCC(=O)N2)C(C)C)cc1F (centres unmarked) | 7.07
CCNC(=O)C(=O)c1c(-c2ccccc2)[nH]c2ccccc12 | 8.09
CC(=O)c1cccc(N(CC(=O)NC2CCCC2)C(=O)CNC(=O)c2cccs2)c1 | 12.3
CCC1C(=O)N=C(SCC(=O)Nc2nc3ccccc3s2)NC1=O (centres unmarked) | 12.6
Cc1cccc(-c2noc(Cc3ccc(Cl)cc3)n2)c1 | 13.1
COc1ccc(NC(=O)c2cccnc2SC)cc1OC | 7.51
CC(=O)c1ccc(N2CCN(S(=O)(=O)c3ccc4c(c3)NC(=O)CO4)CC2)cc1 | 12.2
CCn1c(SC(C)C)nnc1-c1cc(-c2ccccc2)sc1N | 6.79
CCc1ccccc1NC(=S)N=Nc1c(O)n(C)c2ccc(S(=O)(=O)N3CCOCC3)cc12 | 3.29
COCCCn1c(SCC(=O)NCc2ccccc2)nc2ccccc2c1=O | -8.03
CCC(CC)C(=O)Nc1nnc(SCC(=O)N2CCN(c3ccccc3OC)CC2)s1 | 12.8
CCC(=O)N1CCN(c2ccc(NC(=O)COc3ccc(CC)cc3)cc2)CC1 | 10.9
NC(N)=Nc1nc(-c2ccccc2)c2ccccc2n1 | -6.8
Cc1ccc(C(=O)N2CCC(n3nccc3NC(=O)Nc3cccc(F)c3)CC2)cn1 | 10.9

SMILES | hERG current change (%, negative = inhibition) at 1uM [%]
O=C(Nc1cccc(O)c1)c1noc2c1CCCCC2 | -0.868
O=c1cc(N2CCCC2)c2ccccc2o1 | 1.44
CCOC(=O)/C(=C\C=C\N1CCOCC1)C(C)=O | 4.97
CCOC(=O)C1CCN(C=Nc2cc(C)on2)CC1 | 17.5
COc1cccc(C(=O)NCCCNC(=O)c2ccccn2)c1 | 15.2
CCN(C(=O)C(C)OC(=O)C1C(C(=O)OC)=C(C)NC(C)=C1C(=O)OC)c1ccccc1 (centres unmarked) | 5.45
Clc1ccc(CN=C2Nc3ccccc3CS2)cc1 | 15.8
CCOc1ccc(OCc2ccc(C(=O)NCc3ccncc3)o2)cc1 | 6.08
Cc1occc1-c1nnc(SCC(=O)NC2CCCCC2)o1 | 16.2
Cc1ccc(C(=O)NCC(=O)Nc2ccncc2)cc1C | 2.5
CN(C(=O)Cn1cc(C(F)(F)F)ccc1=O)c1c(N)n(Cc2ccccc2)c(=O)[nH]c1=O | 2.53
O=C(COC(=O)c1cccc(C(=O)OCC(=O)NC2CCCCC2)n1)NC1CCCCC1 | 10.5
COc1ccccc1NC(=O)C(C)Sc1nccn1C (centres unmarked) | -3.84
CC(C)NS(=O)(=O)c1ccc(CCC(=O)NCc2cccnc2)cc1 | -2.67
COCCCNC(=O)C1CCCN(S(C)(=O)=O)C1 (centres unmarked) | -0.126
Cc1ccc2oc(C(=O)Nc3ccc(S(=O)(=O)Nc4onc(C)c4C)cc3)cc(=O)c2c1 | 15.4
CCOc1ccc(-n2nnnc2SCC(=O)N2CCOCC2)cc1 | 11.6
COc1ccc(C(=O)NC(C(=O)NCc2ccccc2OC)C(C)C)cc1 (centres unmarked) | 9.93
O=C(c1ccccc1Sc1c(Cl)cccc1[N+](=O)[O-])N1CCOCC1 | 16.6
Cc1noc(NS(=O)(=O)c2ccc(NC(=O)c3ccoc3C)cc2)c1C | 11.5
CCSc1nnc(C)c(=O)n1COC(=O)c1ccc(S(=O)(=O)N2CCCC2)cc1 | 11.2
CSc1ncccc1C(=O)OCc1ccccc1 | 6.25
COc1ccc(C)cc1NC(=O)c1cc(-c2ccccc2)nc2c1cnn2C(C)C | 4.36

SMILES | hERG current change (%, negative = inhibition) at 1uM [%]
Cc1cc(/C=C(\C#N)C(=O)NCc2ccccc2)cc(C)c1O | 16.4
CN(c1ccc(C(=O)Nc2ccc3c(c2)OCCO3)cc1)S(C)(=O)=O | 10.1
COC(=O)c1ccccc1NS(=O)(=O)c1cn(C)c(=O)n(C)c1=O | 1.71
COc1ccc(OCC#CCN2CCCCCC2)cc1.O=C(O)C(=O)O | -0.12
O=C(CCN1C(=O)/C(=C/c2ccccc2)SC1=S)NCCCN1CCOCC1 | 2.61
Cc1ccc(C)c(NC(=O)C(C)CC2COCCO2)c1 (centres unmarked) | 6.86
Cc1ccc(S(=O)(=O)N/N=C/c2ccccc2F)cc1[N+](=O)[O-] | 17.4
c1ccc(-n2nnnc2-n2cnc3ccccc32)cc1 | 2.26
Oc1cc2c(cc1CN1CCN(c3ccccc3F)CC1)OCO2 | 5.29
O=c1c2ccccc2sc2ccc(Cl)cc12 | 17.1
COc1ccccc1N1CCN(CC(=O)Nc2ccc(-n3cnnn3)cc2)CC1 | 8.78
Cc1ccc([N+](=O)[O-])cc1NC(=O)C1CCCC1 | 16.3
COc1ccsc1NC(=O)OCc1ccc(Cl)cc1 | -11.5
CC(C)NC(=O)CN1C(=O)c2ccccc2S1(=O)=O | 12.7
CCOc1ccccc1NC(=O)CSc1nnc(-c2ccco2)n1Cc1ccco1 | 3.17
COc1cc(OC)cc(C(=O)Nc2ccc(CN3CCCCC3)cc2)c1 | 13
COc1ccccc1NC(=S)NC(=O)CC(C)C | -2.42
O=C(NCC1CCCO1)c1cc(-c2ccccc2)on1 (centres unmarked) | 4.24
COc1cc(C(=O)Nc2ccc(C#N)cc2)c([N+](=O)[O-])cc1OC | 1.12
O=C(Nc1ccc2c(c1)CCC2)c1cnccn1 | 0.632
COc1ccc(-c2cn(-c3ccccc3)nc2C(=O)O)cc1OC | 8.69
Cc1ccc(NC(=O)COC(=O)/C=C/c2c(C)nn(-c3ccc(F)cc3)c2Cl)cc1F | 7.45
CCCCCCn1c(C(C)NC(=O)c2ccco2)nc2ccccc21 (centres unmarked) | -7.39

SMILES | hERG current change (%, negative = inhibition) at 1uM [%]
Cc1ccc(NC(=O)c2cc(=O)[nH]c3ccc(S(=O)(=O)N4CCOCC4)cc23)nc1 | 14.5
Cc1nc(-c2ccc(S(=O)(=O)NCc3cccnc3)s2)cs1 | 11.8
COc1ccc(N2C(=O)c3ccccc3C2O)cc1 (centres unmarked) | 8.57
Cc1ccc2c3c1C1(C(=O)N3C(C)(C)CC2C)C(C#N)=C(N)Oc2cc(O)ccc21 (centres unmarked) | 3.75
C=CCNC(=O)CN1C2CCCC1CC(NC(=O)c1ccccc1C)C2 (centres unmarked) | 13.2
CCCS(=O)(=O)NCCc1cc2ccc(C)cc2[nH]c1=O | 9.97
OCC1(Cc2ccccc2)CCN(Cc2cccc(F)c2F)CC1 | 4.03
CC(=O)Oc1ccc(/C=N\NC(=O)c2cc3c(ccc4ccccc43)o2)cc1 | 7.1
CCOC(=O)C1CCN(c2nnc(N3CCCC3=O)s2)CC1 | 13
CCCC(C)NC(=O)COc1ccc(S(=O)(=O)N2CCCC2)cc1 (centres unmarked) | 12.9
COc1ccc2nc(SCC(=O)NCc3ccc4c(c3)OCO4)[nH]c2c1 | 7.13
Cl.O=C(CCl)N1CCN(CC(=O)N2CCCC2)CC1 | 18.6
Cc1ccc(-c2c(C(=O)N/N=C/c3cccnc3)nnn2-c2nonc2N)cc1 | 12.5
Cn1c(CS(=O)Cc2c(Cl)cccc2Cl)nnc1SCc1ccc(Cl)cc1 (centres unmarked) | -12.4
CC(C)(C)NC(=O)c1cccc(NC(=O)CSc2ccc(Cl)cc2)c1 | -23.1
Cc1ccc(C(=O)OCC(=O)Nc2ccccc2N2CCOCC2)cc1 | 8.92
CCCN(CCC)C(=S)NC(=O)c1ccc(Cl)cc1Cl | -5.92
COc1ccccc1NC(=O)Nc1nnc(-c2ccco2)s1 | 22.7
Cc1cn(S(=O)(=O)c2ccc(Br)cc2)cn1 | -5.94
CCc1ccc(N(C(=O)c2ccco2)C(C(=O)NC2CCCC2)c2ccco2)cc1 (centres unmarked) | 8.56
O=c1cc(N2CCCCC2)c(-c2ccccc2)nn1Cc1ccc(Cl)cc1Cl | 0.99
COc1cccc(-c2nc(C(N)=O)c3[nH]c(=O)n(-c4ccccc4)c3n2)c1OC | 7.39
CCn1cc(C(=O)N(CCC(C)C)c2c(N)n(Cc3ccccc3)c(=O)[nH]c2=O)c(=O)c2ccc(C)nc21 | -4.79
